Several values for one entry are separate records, joined by “and”; a condition that tells them apart may be missing. Equal entries are not always repeated. The campaign covered roughly 360,000 compounds. About 25,000 (6.9%) were called active. The inconclusive results got no clear call from the source; some entries with a clear call stand among them for comparison. Calls come from the whole dose curve; as a rule, active = well fitted inhibition curve with a large enough effect; inconclusive = small, poorly fitted or top-dose-only effect; inactive = flat fitted curve, though single readings scatter. Potencies beside an inconclusive call are fits to weak or partial responses and may not hold up.
Each compound was assayed against Luciferin 4-monooxygenase (Photinus pyralis) (UniProt P08659) (assay: qHTS profiling assay for firefly luciferase inhibitor/activator using purifed enzyme and Km concentrations of substrates (counterscreen for miR-21 project)). Settings: purified FLuc, luminescence inhibition; series mostly up to 57.5 µM.
Summary of the method: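 Purified P. pyralis luciferase (10nM final) with 10uM D-luciferin and 10uM ATP (Km levels) in 50mM Tris acetate pH 7.5, 10mM Mg acetate, 0.01% Tween-20, 0.05% BSA; qHTS 6-point titration, ~60 µM downward; luminescence read.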
Note: nearly all actives have a fitted effect of over 55% in size.
Potency is the fitted concentration of half-maximal effect; tags give direction and shape of the fitted curve.

Chain of UniProt P08659 (P08659 whole entry, looked up): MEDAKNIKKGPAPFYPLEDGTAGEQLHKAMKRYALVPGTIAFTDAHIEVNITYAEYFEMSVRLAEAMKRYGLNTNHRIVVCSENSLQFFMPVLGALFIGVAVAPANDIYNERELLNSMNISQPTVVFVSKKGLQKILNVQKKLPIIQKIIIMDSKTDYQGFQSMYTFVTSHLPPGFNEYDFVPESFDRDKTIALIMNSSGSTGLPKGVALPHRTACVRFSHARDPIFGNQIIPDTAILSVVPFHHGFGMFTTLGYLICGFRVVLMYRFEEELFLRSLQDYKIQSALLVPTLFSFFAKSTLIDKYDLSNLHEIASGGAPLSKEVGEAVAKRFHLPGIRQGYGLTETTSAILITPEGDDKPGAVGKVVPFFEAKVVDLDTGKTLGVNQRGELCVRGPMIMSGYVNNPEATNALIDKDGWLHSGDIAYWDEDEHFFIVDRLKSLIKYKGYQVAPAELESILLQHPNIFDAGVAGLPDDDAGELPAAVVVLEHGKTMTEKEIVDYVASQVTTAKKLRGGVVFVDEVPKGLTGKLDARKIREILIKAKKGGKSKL

**Q.** With `CC(C)(C)c1ccc(C(=O)NC2(C(F)(F)F)C(=O)Nc3c2c(=O)[nH]c(=O)n3-c2ccccc2)cc1` (configuration not stated) as the compound, how does the Potency read?
**A.** Its Potency is inconclusive: 15.1 µM [inhibitor, partial curve, poor fit].

**Q.** With `O=C(CSc1nnc(SCc2ccc(Cl)cc2)s1)c1ccc2c(c1)OCO2` as the compound, how does the Potency read?
**A.** Its Potency is inconclusive: 37.9 µM [inhibitor, partial curve, poor fit].

**Q.** Which Potency does the source give for `CCOc1ccc(Nc2nnc(-n3nc(C)cc3C)c3ccccc23)cc1` here?
**A.** Its Potency is inconclusive: 16.9 µM [inhibitor, partial curve].

**Q.** `Cc1cc(OCC(=O)Nc2cccc(S(=O)(=O)N3CCCC3)c2)ccc1Cl` was tested. Which Potency did it give?
**A.** The Potency was inconclusive: 16.9 µM [inhibitor, partial curve].

**Q.** For `COc1ccc(C(=O)Nc2ccc3c(c2)CCCN3C(=O)c2cccs2)c(OC)c1`, which Potency is on record?
**A.** The Potency was inconclusive: 19 µM [inhibitor, partial curve, poor fit] and inconclusive: 23.9 µM [inhibitor, partial curve].

**Q.** How did the Potency turn out when `O=C(O)c1ccc(Nc2nc(-c3cccnc3)cs2)cc1` was run?
**A.** The Potency was active: 5.36 µM.

**Q.** With `O=C(CCSc1ccc(Cl)cc1)c1cccs1` as the compound, how does the Potency read?
**A.** Its Potency is inconclusive: 21.3 µM [inhibitor, single point].

**Q.** For `NC(=O)C1CC(=O)N(c2ccc(OCc3ccc([N+](=O)[O-])cc3)cc2)C1` (configuration not stated), which Potency is on record?
**A.** The Potency was inconclusive: 23.9 µM [inhibitor, single point].

**Q.** `O=C(Nc1ccccn1)NC1CCCCC1` was tested. Which Potency did it give?
**A.** The Potency was “inactive”.

**Q.** With `Cc1ccc(/C=C2\SC(=S)N(CC(=O)Nc3cccnc3)C2=O)cc1` as the compound, how does the Potency read?
**A.** The Potency was inconclusive: 21.3 µM [inhibitor, partial curve, poor fit].

**Q.** How did the Potency turn out when `COc1cc(C(=O)Nc2nc3ccccc3[nH]2)cc(OC)c1OC` was run?
**A.** The Potency was inconclusive: 30.1 µM [inhibitor, partial curve, poor fit].

**Q.** With `CC(NC(=O)c1ccc(C23CC4CC(CC(C4)C2)C3)cc1)C(=O)O` (configuration not stated) as the compound, how does the Potency read?
**A.** The Potency was active: 19 µM.

**Q.** `CCOc1ccc(NC(=O)CSc2nnc(CCNC(=O)c3ccc(OC)cc3)n2CC)cc1` was tested. Which Potency did it give?
**A.** The Potency was inconclusive: 16.9 µM [inhibitor, partial curve, poor fit].

**Q.** `O=C(Nc1nccs1)c1ccc(COc2ccc(Cl)cc2)o1` was tested. Which Potency did it give?
**A.** The Potency was inconclusive: 21.3 µM [inhibitor, single point].

**Q.** Which Potency does the source give for `Cc1ccc(C2=N/C(=C\c3ccc(OS(=O)(=O)c4ccc(C)cc4)cc3)C(=O)O2)cc1` here?
**A.** The Potency was “inactive”.

**Q.** How did the Potency turn out when `CCOc1ccccc1CN1CCc2nc(Nc3ccc4c(c3)OCCO4)ncc2C1` was run?
**A.** The Potency was “inactive”.

**Q.** `CN1CCN(c2ccccc2NC(=O)c2ccc(-c3cccc(Cl)c3)o2)CC1` was tested. Which Potency did it give?
**A.** The Potency was inconclusive: 37.9 µM [inhibitor, single point].

**Q.** With `O=[N+]([O-])c1cccc(-c2nn(-c3ccccc3)cc2CO)c1` as the compound, how does the Potency read?
**A.** The Potency was inconclusive: 37.9 µM [inhibitor, partial curve, poor fit].

**Q.** For `Cc1ccc(-c2cc(NC(=O)CCl)n(-c3ccccc3)n2)cc1`, which Potency is on record?
**A.** Its Potency is inconclusive: 37.9 µM [inhibitor, partial curve, poor fit].

**Q.** `Cc1ccc(C)c(NC(=O)CSc2nccn2Cc2ccco2)c1` was tested. Which Potency did it give?
**A.** The Potency was inconclusive: 16.9 µM [inhibitor, partial curve].

**Q.** How did the Potency turn out when `Cn1cccc1/C=N/NC(=O)c1ccncc1` was run?
**A.** The Potency was “inactive”.

**Q.** `Cc1cccc(-n2c(C)nc3cc(C(=O)NCCC4=CCCCC4)ccc32)c1` was tested. Which Potency did it give?
**A.** The Potency was inconclusive: 37.9 µM [inhibitor, partial curve, poor fit].

**Q.** With `COc1ccc(NC(=O)CCNS(=O)(=O)c2cccc3nsnc23)cc1Cl` as the compound, how does the Potency read?
**A.** The Potency was “inactive”.

**Q.** For `COc1cc(/C=N/NC(=O)c2ccc(CSc3nncn3C)cc2)cc(OC)c1O`, which Potency is on record?
**A.** Its Potency is inconclusive: 37.9 µM [inhibitor, single point].

**Q.** How did the Potency turn out when `COc1ccc(-n2ncc3c(NCc4ccco4)ncnc32)cc1` was run?
**A.** The Potency was active: 9.53 µM.

**Q.** `O=C(c1cc2ccccc2o1)N1CC=C(c2ccccc2)CC1` was tested. Which Potency did it give?
**A.** The Potency was inconclusive: 37.9 µM [inhibitor, single point].

**Q.** Which Potency does the source give for `Cc1cc(C)nc(N2CCC(C(=O)Nc3ccc4c(c3)OCCO4)CC2)n1` here?
**A.** The Potency was “inactive”.

**Q.** Which Potency does the source give for `Cc1cccc(NC(=O)c2ccc3c(c2)CCN3S(=O)(=O)c2ccccc2)c1C` here?
**A.** Its Potency is “inactive”.

**Q.** For `Brc1ccc(-c2csc(N/N=C/c3ccco3)n2)cc1`, which Potency is on record?
**A.** Its Potency is inconclusive: 7.57 µM [inhibitor, partial curve, poor fit].

**Q.** For `CN(CC(=O)Nc1ccc(F)cc1)C(=O)CSc1nc2ncc(Cl)cc2[nH]1`, which Potency is on record?
**A.** Its Potency is inconclusive: 15.1 µM [inhibitor, partial curve, poor fit].

**Q.** Which Potency does the source give for `C=CCc1cccc(CNc2cnc3ccccc3c2)c1O` here?
**A.** Its Potency is inconclusive: 23.9 µM [inhibitor, single point].

**Q.** With `COc1ccc(-c2noc(-c3ccc(N4CCN(c5ccccc5)CC4)c([N+](=O)[O-])c3)n2)cc1` as the compound, how does the Potency read?
**A.** Its Potency is inconclusive: 6.01 µM [inhibitor, partial curve, poor fit].

**Q.** For `O=C(NC(=S)NC1CCCCCC1)c1cncc(Br)c1`, which Potency is on record?
**A.** The Potency was inconclusive: 10.7 µM [inhibitor, single point].

**Q.** `O=C(NCc1ccc2c(c1)OCO2)c1c(Cl)cccc1Cl` was tested. Which Potency did it give?
**A.** Its Potency is “inactive”.

**Q.** With `COc1cc(CNc2ccc(CNc3ncn[nH]3)cc2)ccc1OCc1ccccc1` as the compound, how does the Potency read?
**A.** The Potency was inconclusive: 23.9 µM [inhibitor, partial curve, poor fit].

**Q.** How did the Potency turn out when `C=CCNCc1cccn1-c1sc2c(c1C#N)CCCC2` was run?
**A.** The Potency was “inactive”.

**Q.** Which Potency does the source give for `Cc1nc(C(N)=O)nc2ccccc12` here?
**A.** The Potency was “inactive”.

**Q.** `NNC(=O)/C=C/c1ccc(Cl)cc1Cl` was tested. Which Potency did it give?
**A.** The Potency was inconclusive: 26.9 µM [inhibitor, partial curve].

**Q.** Which Potency does the source give for `Cc1ccc2c(COC(=O)C34CC5CC(CC(C5)C3)C4)cc(=O)oc2c1` here?
**A.** Its Potency is inconclusive: 2.69 µM [inhibitor, full curve].

**Q.** With `CCN(c1ccccc1)S(=O)(=O)c1ccc(Cl)c(NC(=O)Nc2ccc(Cl)cc2C#N)c1` as the compound, how does the Potency read?
**A.** The Potency was inconclusive: 37.9 µM [inhibitor, single point].

**Q.** How did the Potency turn out when `Cc1occc1C(=O)NC1CCCCCCC1` was run?
**A.** The Potency was inconclusive: 30.1 µM [inhibitor, partial curve, poor fit].

**Q.** With `CCn1cc(SCC(=O)N2CCOCC2)c2ccccc21` as the compound, how does the Potency read?
**A.** Its Potency is inconclusive: 26.9 µM [inhibitor, single point].

**Q.** For `O=Nc1c(-c2ccccc2)cc2ccccn12`, which Potency is on record?
**A.** Its Potency is inconclusive: 21.3 µM [inhibitor, single point].

**Q.** With `Cc1cc2cc3c(cc2nc1SCC(=O)O)CCC3` as the compound, how does the Potency read?
**A.** The Potency was inconclusive: 37.9 µM [inhibitor, partial curve, poor fit].

**Q.** With `NS(=O)(=O)c1ccc2nc(NC(=O)C3=COCCO3)sc2c1` as the compound, how does the Potency read?
**A.** Its Potency is active: 12 µM.

**Q.** Which Potency does the source give for `O=C(NCc1ccccc1Br)c1ccc2c(c1)OCCO2` here?
**A.** Its Potency is inconclusive: 15.1 µM [inhibitor, partial curve, poor fit].

**Q.** For `O=C(COC(=O)Cn1[nH]c(=O)c2ccccc2c1=O)Nc1ncc(Cl)cc1Cl`, which Potency is on record?
**A.** The Potency was “inactive”.

**Q.** Which Potency does the source give for `CCN1CCN(c2cc(C)c3cc(NC(=O)c4ccc5c(c4)OCO5)ccc3n2)CC1` here?
**A.** The Potency was inconclusive: 26.9 µM [inhibitor, partial curve].

**Q.** `Cc1ccc(-c2nnn3c2nc(NCC(C)c2ccccc2)c2ccccc23)cc1` (configuration not stated) was tested. Which Potency did it give?
**A.** The Potency was inconclusive: 10.7 µM [inhibitor, partial curve, poor fit].

**Q.** How did the Potency turn out when `COc1cccc(CNC(=O)c2ccc3c(c2)nc2n3CCOC2)c1` was run?
**A.** The Potency was “inactive”.

**Q.** For `Cc1cc(=O)oc2cc(Nc3ccccc3)ccc12`, which Potency is on record?
**A.** Its Potency is inconclusive: 23.9 µM [inhibitor, partial curve].

**Q.** Which Potency does the source give for `O=C1/C(=C/c2cccnc2)SC(=S)N1CC1CCCO1` (configuration not stated) here?
**A.** Its Potency is inconclusive: 30.1 µM [inhibitor, partial curve, poor fit].

**Q.** With `COc1ccc(C(=O)NCc2ccc3c(c2)OCO3)c(OC)c1` as the compound, how does the Potency read?
**A.** The Potency was “inactive”.

**Q.** For `Cc1nnsc1C(=O)NC(=O)Nc1ccc(F)c(Cl)c1`, which Potency is on record?
**A.** Its Potency is inconclusive: 37.9 µM [inhibitor, partial curve, poor fit].

**Q.** For `O=C(CN1C(=O)COc2ccc(S(=O)(=O)NC3CCCC3)cc21)Nc1ccc(Cl)cc1`, which Potency is on record?
**A.** The Potency was inconclusive: 23.9 µM [inhibitor, single point].

**Q.** How did the Potency turn out when `COc1ccc(Cc2nc3ccc(C(=O)N4CCCN(C=O)CC4)cc3o2)cc1` was run?
**A.** The Potency was “inactive”.

**Q.** `Cc1c(C(=O)N(C)C)sc2nc(-c3ccccn3)[nH]c(=O)c12` was tested. Which Potency did it give?
**A.** Its Potency is inconclusive: 33.8 µM [inhibitor, single point].

**Q.** `Cc1ccc(C(=O)Nc2nnc(CC(=O)N/N=C/c3ccncc3)s2)cc1` was tested. Which Potency did it give?
**A.** The Potency was inconclusive: 21.3 µM [inhibitor, partial curve].

**Q.** How did the Potency turn out when `COc1ccc(-c2nn(-c3ccccc3)cc2/C=N/Nc2ccc(S(N)(=O)=O)cc2[N+](=O)[O-])cc1OC` was run?
**A.** Its Potency is inconclusive: 12 µM [inhibitor, partial curve, poor fit].

**Q.** Which Potency does the source give for `CC(=O)Nc1ccc(NC2=C(Cl)C(=O)c3ccccc3C2=O)cc1` here?
**A.** The Potency was inconclusive: 10.7 µM [inhibitor, partial curve, poor fit].

**Q.** Which Potency does the source give for `CCOc1ccc2nc(NC(=O)CN3CCN(C)CC3)sc2c1` here?
**A.** The Potency was inconclusive: 26.9 µM [inhibitor, partial curve, poor fit].

**Q.** With `Cc1ccc(/C=N/NC(=O)c2ccccn2)s1` as the compound, how does the Potency read?
**A.** Its Potency is inconclusive: 4.26 µM [inhibitor, partial curve, poor fit].

**Q.** With `O=C(Cc1cccs1)Nc1ccc([N+](=O)[O-])cc1` as the compound, how does the Potency read?
**A.** Its Potency is “inactive”.

**Q.** How did the Potency turn out when `O=C(CSCc1ccc(Cl)cc1)N1CCOCC1` was run?
**A.** The Potency was inconclusive: 30.1 µM [inhibitor, partial curve, poor fit].

**Q.** `Cc1cc(-c2ccc(S(=O)(=O)Nc3ccccc3F)s2)on1` was tested. Which Potency did it give?
**A.** Its Potency is inconclusive: 26.9 µM [inhibitor, partial curve, poor fit].

**Q.** For `O=C(O)Cn1nnc(-c2ccc(OCc3ccccc3Cl)cc2)n1`, which Potency is on record?
**A.** The Potency was active: 19 µM.

**Q.** With `Cc1ccc(NP(=O)(c2ccc(N(C)C)cc2NC(=O)c2cccs2)N2CCOCC2)cc1Cl` (configuration not stated) as the compound, how does the Potency read?
**A.** The Potency was inconclusive: 10.7 µM [inhibitor, partial curve].
